# Experimental data: the supplement of paper PMC7125110
# ± gives the standard error. Variants at the floor of the assay are shown more often than the library holds them.
# B1: glmS ribozyme (parent)
# chain: AUAAAAGCGCCAGAACUACAGAAAUGUAGUUGACGAGGAGGAGGUUUAUCGAAUUUUCGGCGGAUGCCUCCAAA
# Variants of: B1
# Assay: self-cleavage kobs at 2500 uM GlcN6P; higher = faster cleavage; RNA array
# Details: with glucosamine-6-phosphate
# How it was run: (§1)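 On sequenced MiSeq chips, barcoded ribozyme variants were made in situ by E. coli RNA polymerase and followed at 37 °C through a hybridised Cy3 probe. Glucosamine-6-phosphate was flowed in at 40 μM to 10 mM in HEPES/KCl/Mg(OAc)2 buffer. Exponential fits to normalised per-tile medians gave kobs, and weighted Michaelis–Menten fits gave kcat and KM.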
row,Variant,self-cleavage kobs at 2500 uM GlcN6P
1,G7C A33C U47G G60U,< 1e-05 s⁻¹
2,G7A C34U U46G,< 1e-05 s⁻¹
3,G7U G9C U47A U56G G59U C70A,< 1e-05 s⁻¹
4,A6G C10G U30A G32U U56G,< 1e-05 s⁻¹
5,A6G U54C G59C,< 1e-05 s⁻¹
6,A6U G37A G51C,< 1e-05 s⁻¹
7,G7A G41U C67A,< 1e-05 s⁻¹
8,A6G G13U G41U G51U,< 1e-05 s⁻¹
9,G7C G9U U54A,< 1e-05 s⁻¹
10,A6C U65C C68G,< 1e-05 s⁻¹
11,A6G G7A A14C C70U,< 1e-05 s⁻¹
12,U57C G59C C71A,< 1e-05 s⁻¹
13,A6C U30A G41A G44C A48U,< 1e-05 s⁻¹
14,A6G A53U C71A,< 1e-05 s⁻¹
15,G7A G43U G51C,< 1e-05 s⁻¹
16,A6U G29C G40C G44U C50G,< 1e-05 s⁻¹
17,A6G C11G U69G,7.2e-05 ± 2.9e-05 s⁻¹
18,G7C U30G G32U A64G,< 1e-05 s⁻¹
19,G43U A48U U49A,< 1e-05 s⁻¹
20,U2C A53C,0.00726 ± 0.0019 s⁻¹
21,A42C G43C C68A C71A,< 1e-05 s⁻¹
22,G7C U45G A48U C67A,< 1e-05 s⁻¹
23,A6G G32C U45C U54C G62A,< 1e-05 s⁻¹

row,Variant,self-cleavage kobs at 2500 uM GlcN6P
1,A6G G43U U45A C50U G59A U69G C70U,< 1e-05 s⁻¹
2,A6U G40U C68U,< 1e-05 s⁻¹
3,A39G G43C C50A,< 1e-05 s⁻¹
4,A6G G35U G40A,< 1e-05 s⁻¹
5,A6U G32U U57G,< 1e-05 s⁻¹
6,A6G U31C A42G G62C,< 1e-05 s⁻¹
7,A6G G29C A33G C34A,< 1e-05 s⁻¹
8,A6C A12U U30A G41C U49G,< 1e-05 s⁻¹
9,A6C A52G,< 1e-05 s⁻¹
10,A6C G13U A33U A52C G63C,< 1e-05 s⁻¹
11,G7A C11A A12U G32A G60A C61G,< 1e-05 s⁻¹
12,C61G G62U C68G,< 1e-05 s⁻¹
13,A36C U47A,< 1e-05 s⁻¹
14,A6U A15G G35U A36C U69C,< 1e-05 s⁻¹
15,A6U G7A G35A,< 1e-05 s⁻¹
16,A6G A42C G62U A64U C68A,< 1e-05 s⁻¹
17,G7A U45A C61A,< 1e-05 s⁻¹
18,A6U C10U C11U G44A,< 1e-05 s⁻¹
19,A6U U31C G59A G66C,< 1e-05 s⁻¹
20,A6U G7A G60U G62U U65G,< 1e-05 s⁻¹
21,G7C C10U G13C G66U,< 1e-05 s⁻¹
22,U46G U47G A48G C71A,< 1e-05 s⁻¹
23,A6U G40U A48C,< 1e-05 s⁻¹

row,Variant,self-cleavage kobs at 2500 uM GlcN6P
1,G38U A39G G59A,< 1e-05 s⁻¹
2,G7C A33U U47G,< 1e-05 s⁻¹
3,A6G G37A U45C U65G,< 1e-05 s⁻¹
4,A6G G38C C71A,< 1e-05 s⁻¹
5,A6C A64C C67U,< 1e-05 s⁻¹
6,G35C U57C,< 1e-05 s⁻¹
7,A6C C11A U31A C58A,< 1e-05 s⁻¹
8,A6G G40U A52G A53U,< 1e-05 s⁻¹
9,G7A A12C G13A U46A C50U,< 1e-05 s⁻¹
10,G43C A52U C61A,< 1e-05 s⁻¹
11,G7A U31C A39G A52U,< 1e-05 s⁻¹
12,G37A G51U,< 1e-05 s⁻¹
13,G7A G9C A33U G38U A53U C68A,< 1e-05 s⁻¹
14,G35U C68G U69C,< 1e-05 s⁻¹
15,G7A A15G U31C C34U C50U U54A G59U,< 1e-05 s⁻¹
16,G7U C10A U49G,< 1e-05 s⁻¹
17,G7C C11U G60U,< 1e-05 s⁻¹
18,G7U C10G C11A U56A,< 1e-05 s⁻¹
19,G7C G29A U30A G35A,< 1e-05 s⁻¹
20,A6U A14U G32U G41C A42C G43C C58A,< 1e-05 s⁻¹
21,A6C G13U U46G,< 1e-05 s⁻¹
22,G7U C58G G66C,< 1e-05 s⁻¹
23,C34U G63A,< 1e-05 s⁻¹

row,Variant,self-cleavage kobs at 2500 uM GlcN6P
1,G7A G37U A52C G62A C71U,< 1e-05 s⁻¹
2,G7A A36G G38A U47G A53G,< 1e-05 s⁻¹
3,C34U G35C,< 1e-05 s⁻¹
4,G38C G51U U57C,< 1e-05 s⁻¹
5,G44A A48G G51U G59A,< 1e-05 s⁻¹
6,G7A A12C A15U G41U,< 1e-05 s⁻¹
7,G7A C8A U56G,< 1e-05 s⁻¹
8,A6C G37C U49G C70U,< 1e-05 s⁻¹
9,G35A U49G G51C,< 1e-05 s⁻¹
10,A6U G35C G37U A39G,< 1e-05 s⁻¹
11,G7A C8G A12G G13C,< 1e-05 s⁻¹
12,A6U G35U G37C U47A,< 1e-05 s⁻¹
13,A6G C10G U31A,< 1e-05 s⁻¹
14,G7A C10U G35U G43U,< 1e-05 s⁻¹
15,G7C A12C A14G A64G C68U,< 1e-05 s⁻¹
16,G7A A12G G60U G63U,< 1e-05 s⁻¹
17,G7C G38A A52C G60C,< 1e-05 s⁻¹
18,A6U A14G U69G,0.000146 ± 3.5e-05 s⁻¹
19,A6G G51C G62A,< 1e-05 s⁻¹
20,A6G G32U A53G U54G,< 1e-05 s⁻¹
21,A6C G41C G44U C58U,< 1e-05 s⁻¹
22,A6U C11U G32U U55G A64C,< 1e-05 s⁻¹
23,C34U C50G C68A,9.73e-05 ± 2.8e-05 s⁻¹

row,Variant,self-cleavage kobs at 2500 uM GlcN6P
1,A6G G38C G41U C68U,< 1e-05 s⁻¹
2,A6C A15U G35A G40U,< 1e-05 s⁻¹
3,G7C G41U G59U,< 1e-05 s⁻¹
4,G7A A48G C70U,< 1e-05 s⁻¹
5,G40A G62A,< 1e-05 s⁻¹
6,A6G G43U G44A A48U G63A,< 1e-05 s⁻¹
7,A6U A14C U45A A48G G66U,< 1e-05 s⁻¹
8,A6G A15U U46A A64U,< 1e-05 s⁻¹
9,G7A A33U A42U G44U G51A,< 1e-05 s⁻¹
10,A6U C10A A48G C58G,< 1e-05 s⁻¹
11,A6G G26U U46C,< 1e-05 s⁻¹
12,A6G A33U G66U,< 1e-05 s⁻¹
13,A6C C10A A36C U57C A64G,< 1e-05 s⁻¹
14,G40A A48G C50G,< 1e-05 s⁻¹
15,G7C G13C A48G C50U C71U,< 1e-05 s⁻¹
16,A6C A15G U57A G62C A64U,< 1e-05 s⁻¹
17,A6U G7U A36U A42U C58U A64U,< 1e-05 s⁻¹
18,G35U G41A G60U,< 1e-05 s⁻¹
19,C34U U49G A52U,< 1e-05 s⁻¹
20,G7U C8U U55A A64U,< 1e-05 s⁻¹
21,A6G G43A G51U,< 1e-05 s⁻¹
22,G7U G13A A15C G29U A36G,< 1e-05 s⁻¹

# Variants of: B1
# Assay: self-cleavage kobs at 160 uM GlcN6P; higher = faster cleavage; RNA array
# Details: with glucosamine-6-phosphate
# How it was run: as §1
row,Variant,self-cleavage kobs at 160 uM GlcN6P
1,G41C A52C C68U,< 1e-05 s⁻¹
2,G40A U55C C67A,< 1e-05 s⁻¹
3,A36C U49G A64U,< 1e-05 s⁻¹
4,G51U A52U G62A G63C A64G,< 1e-05 s⁻¹
5,G41C G51C A64C,< 1e-05 s⁻¹
6,G37A G59A G62A,< 1e-05 s⁻¹
7,U57C G59C C71A,< 1e-05 s⁻¹
8,A33U A53G C70U,< 1e-05 s⁻¹
9,U45C U57A,< 1e-05 s⁻¹
10,G40U G41C U56A,< 1e-05 s⁻¹
11,G43U A48U U49A,< 1e-05 s⁻¹
12,A39G G41A G59U G60U,< 1e-05 s⁻¹
13,A42C G43C C68A C71A,< 1e-05 s⁻¹
14,A36G G38A C67A,< 1e-05 s⁻¹
15,G35U A48G U55A G63A C68U,< 1e-05 s⁻¹
16,C50G G66A,5.66e-05 ± 2.2e-05 s⁻¹
17,A39G G43C C50A,< 1e-05 s⁻¹
18,G38C G44U C67G,< 1e-05 s⁻¹
19,U57C C58G,< 1e-05 s⁻¹
20,A33G G40U G44U A52U,< 1e-05 s⁻¹

row,Variant,self-cleavage kobs at 160 uM GlcN6P
1,G44C U54G,< 1e-05 s⁻¹
2,C61G G62U C68G,< 1e-05 s⁻¹
3,A36C U47A,< 1e-05 s⁻¹
4,U46G U47G A48G C71A,< 1e-05 s⁻¹
5,A48G C67A,< 1e-05 s⁻¹
6,G38U A39G G59A,< 1e-05 s⁻¹
7,G35C U57C,< 1e-05 s⁻¹
8,G43U A53U,< 1e-05 s⁻¹
9,G43C A52U C61A,< 1e-05 s⁻¹
10,G37A G51U,< 1e-05 s⁻¹
11,G35U C68G U69C,< 1e-05 s⁻¹
12,A42U G44C G63U,< 1e-05 s⁻¹
13,A42U C50U C67U,< 1e-05 s⁻¹
14,U54C U57G,< 1e-05 s⁻¹
15,A52C A53G G62C,< 1e-05 s⁻¹
16,C34U G63A,< 1e-05 s⁻¹
17,A42C G51U A53C C71G,< 1e-05 s⁻¹
18,G40U A42C G62C,< 1e-05 s⁻¹
19,C34U G35C,< 1e-05 s⁻¹
20,G38C G51U U57C,< 1e-05 s⁻¹

row,Variant,self-cleavage kobs at 160 uM GlcN6P
1,G41A A42U G62U,< 1e-05 s⁻¹
2,G44A A48G G51U G59A,< 1e-05 s⁻¹
3,G44C A53U,< 1e-05 s⁻¹
4,G35A U49G G51C,< 1e-05 s⁻¹
5,A42G C58U,< 1e-05 s⁻¹
6,G41C C50A A53G,< 1e-05 s⁻¹
7,G41C A52G G63U,< 1e-05 s⁻¹
8,G35A C68U C70G,< 1e-05 s⁻¹
9,C34A G37A G41A G60A,< 1e-05 s⁻¹
10,G35A A39U,< 1e-05 s⁻¹
11,A48G G62A U65G,< 1e-05 s⁻¹
12,C34U C50G C68A,9.29e-05 ± 2.9e-05 s⁻¹
13,G37C A53U C70U,< 1e-05 s⁻¹
14,G40A G62A,< 1e-05 s⁻¹
15,G37C C71G,< 1e-05 s⁻¹
16,G40A A48G C50G,< 1e-05 s⁻¹
17,G35U G41A G60U,< 1e-05 s⁻¹
18,C34U U49G A52U,< 1e-05 s⁻¹
19,A42U A52G,< 1e-05 s⁻¹
20,C58U C71A,< 1e-05 s⁻¹

# Variants of: B1
# Assay: self-cleavage kobs at 10000 uM GlcN6P; higher = faster cleavage; RNA array
# Details: with glucosamine-6-phosphate
# How it was run: as §1
row,Variant,self-cleavage kobs at 10000 uM GlcN6P
1,G38C G44U C67G,< 1e-05 s⁻¹
2,A6G U31C A42G G62C,< 1e-05 s⁻¹
3,A48G C67A,3.47e-05 ± 1.2e-05 s⁻¹
4,G7C A33U U47G,< 1e-05 s⁻¹
5,G35C U57C,< 1e-05 s⁻¹
6,G43C A52U C61A,< 1e-05 s⁻¹
7,A52C A53G G62C,< 1e-05 s⁻¹
8,C34U G63A,< 1e-05 s⁻¹
9,C34U G35C,< 1e-05 s⁻¹
10,C34A G37A G41A G60A,< 1e-05 s⁻¹
11,G35A A39U,< 1e-05 s⁻¹
12,G40A G62A,< 1e-05 s⁻¹
13,G37C C71G,< 1e-05 s⁻¹
14,C34U U49G A52U,< 1e-05 s⁻¹
15,A42U A52G,1.62e-05 ± 7.9e-06 s⁻¹
